Source: PubChem BioAssay AID485294 (National Center for Advancing Translational Sciences (NCATS), 2010)
Among all 370,000 compounds or so, about 150 (0.041%) were called active. Inconclusive means that the source gave no clear call. Such entries were picked first, then a sample of the others. Calls come from the whole dose curve; as a rule, active = well fitted inhibition curve with a large enough effect; inconclusive = small, poorly fitted or top-dose-only effect; inactive = flat fitted curve, though single readings scatter. Potencies of inconclusive entries are left out as doubtful fits.

Molecular target: Beta-lactamase (Escherichia coli (strain K12)) (UniProt P00811)
Assay: qHTS Inhibitors of AmpC Beta-Lactamase (assay with detergent); note: nearly all actives have a fitted effect of over 25% in size;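 for activity change, negative = inhibition: 0% = no-compound wells and -100% = no-enzyme wells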
Conditions: AmpC hydrolysis of nitrocefin, absorbance 480 nm, 0.01% Triton; activity change, negative = inhibition: at 114 µM (top of the series)
Summary of the method: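 AmpC (5.3 nM in the dispensed reagent) in 20 mM phosphate pH 7.0 with 0.01% (detergent screen) or 0.0001% Triton X-100 was preincubated with compounds for 15 min at room temperature. Nitrocefin was then added from an 800 uM solution, and hydrolysis was followed at 480 nm.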
Potency is the fitted concentration of half-maximal effect; tags give direction and shape of the fitted curve.

UniProt P00811, sequence (P00811 whole entry, looked up): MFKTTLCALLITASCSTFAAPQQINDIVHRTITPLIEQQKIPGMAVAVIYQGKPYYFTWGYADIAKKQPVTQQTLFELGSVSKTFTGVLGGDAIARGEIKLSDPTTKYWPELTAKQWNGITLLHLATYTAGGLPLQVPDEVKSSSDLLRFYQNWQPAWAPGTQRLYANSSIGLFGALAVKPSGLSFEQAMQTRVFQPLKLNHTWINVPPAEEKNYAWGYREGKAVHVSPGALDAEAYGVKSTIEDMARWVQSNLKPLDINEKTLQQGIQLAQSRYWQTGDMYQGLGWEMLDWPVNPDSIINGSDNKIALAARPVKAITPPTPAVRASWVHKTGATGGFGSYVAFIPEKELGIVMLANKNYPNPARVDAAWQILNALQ

| Compound | Potency | activity change, negative = inhibition |
| --- | --- | --- |
| COc1ccc(-c2noc(-c3ccc(Cl)cc3[N+](=O)[O-])n2)cc1OC | inconclusive [inhibitor, full curve] |  |
| Cc1ccc(-c2csc(N/N=C/c3ccco3)n2)c(C)c1 | inconclusive [inhibitor, partial curve] |  |
| Cc1ccc2nc(N3CCN(C(=O)c4ccco4)CC3)sc2c1 | inconclusive [inhibitor, single point] |  |
| C/C(=N\N1CCN(C2c3ccccc3-c3ccccc32)CC1)c1ccco1 | inconclusive [inhibitor, full curve, poor fit] |  |
| O=C(C1=C(O)C(=O)N(CC2CCCO2)C1c1cccnc1)c1ccco1 (centres undefined) | inconclusive [inhibitor, full curve, poor fit] |  |
| COc1ccc(NC(=O)Cn2cccc2)cc1Cl | inconclusive [inhibitor, single point] |  |
| CCn1c(=O)cc(OCC(=O)N2CCN(c3ccccc3OC)CC2)c2ccccc21 |  | inactive: 14.8% |
| Cc1ccccc1Nc1nc(N)nc(CSc2ccccc2)n1 | inconclusive [inhibitor, full curve] |  |
| Cc1cc(C)n2c(Nc3ccccc3)c(-c3ccccc3)nc2n1 |  | inactive: 14.4% |
| CC(=O)NCCCC(=O)NNC1CC(=O)N(c2cccc(Cl)c2)C1=O (centres undefined) |  | inactive: 5.65% |
| C[C@@]12CCC=C[C@H]1[C@H](c1ccc(C(F)(F)F)cc1)N(Cc1ccccc1)C2=O |  | inactive: -7.49% |
| Cc1nnc(SCC(=O)N2CC(C)OC(C)C2)n1-c1ccccc1 (centres undefined) | inconclusive [inhibitor, full curve, poor fit] |  |
| Cc1ccccc1CNC(=O)c1cc2cc(S(=O)(=O)N3CCCCC3)ccc2n1C |  | inactive: -3.01% |
| CCN1CCN(c2ccc(S(=O)(=O)N3CCOCC3)cc2NC(=O)C(C)Oc2cccc(Cl)c2)CC1 (centres undefined) | inconclusive [inhibitor, single point] |  |
| COc1ccc(CN2CCN(C(=O)Cn3c(=O)oc4cc(Cl)ccc43)CC2)c(OC)c1OC |  | inactive: -12% |
| CCc1ccccc1NC(=O)Nc1ccsc1C(=O)OC | inconclusive [inhibitor, partial curve, poor fit] |  |
| O=C(CSc1nnc(Cc2ccccc2)o1)N1CCc2ccccc21 | inconclusive [inhibitor, full curve] |  |
| N#CC1(C#N)COC23CCCCC2C1(C#N)C(=N)O3 (centres undefined) | inconclusive [inhibitor, full curve, poor fit] |  |
| CC(NC(=O)c1cccc(C(F)(F)F)c1)C(c1ccccc1)N1CCOCC1 (centres undefined) | inconclusive [inhibitor, single point] |  |
